# Data taken from the supplement of paper PMC9174493.
# This is one part of the list. Single values of this set are uncertain. Values with irradiation are relative to irradiated vehicle.
# Experiments:
# A549-Dual [1] = assay: NF-kB reporter (SEAP) activity, viability-corrected, relative to vehicle (fold change vs vehicle); higher = more activation of STING-IRF / NF-kB immune response reporter
# A549-Dual [2] = assay: ISRE reporter (Lucia luciferase) activity, viability-corrected, relative to vehicle (fold change vs vehicle); higher = more activation of STING-IRF / NF-kB immune response reporter
# 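Throughout, for NF-kB reporter (SEAP) activity, viability-corrected, relative to vehicle: viability correction based on the alamar blue assay, with concentrations leaving 10% survival or less dropped.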
SMILES,"NF-kB reporter (A549-Dual [1]; 0.1 µM, irradiation: 8 Gy/4 fr)","NF-kB reporter (A549-Dual [1]; 0.1 µM, irradiation: none)","NF-kB reporter (A549-Dual [1]; 0.3 µM, irradiation: 8 Gy/4 fr)","NF-kB reporter (A549-Dual [1]; 0.3 µM, irradiation: none)","NF-kB reporter (A549-Dual [1]; 1 µM, irradiation: 8 Gy/4 fr)","NF-kB reporter (A549-Dual [1]; 1 µM, irradiation: none)","NF-kB reporter (A549-Dual [1]; 3 µM, irradiation: 8 Gy/4 fr)","NF-kB reporter (A549-Dual [1]; 3 µM, irradiation: none)","NF-kB reporter (A549-Dual [1]; 10 µM, irradiation: 8 Gy/4 fr)","NF-kB reporter (A549-Dual [1]; 10 µM, irradiation: none)","ISRE reporter (A549-Dual [2]; 0.1 µM, irradiation: 8 Gy/4 fr)","ISRE reporter (A549-Dual [2]; 0.1 µM, irradiation: none)","ISRE reporter (A549-Dual [2]; 0.3 µM, irradiation: 8 Gy/4 fr)","ISRE reporter (A549-Dual [2]; 0.3 µM, irradiation: none)","ISRE reporter (A549-Dual [2]; 1 µM, irradiation: 8 Gy/4 fr)","ISRE reporter (A549-Dual [2]; 1 µM, irradiation: none)","ISRE reporter (A549-Dual [2]; 3 µM, irradiation: 8 Gy/4 fr)","ISRE reporter (A549-Dual [2]; 3 µM, irradiation: none)","ISRE reporter (A549-Dual [2]; 10 µM, irradiation: 8 Gy/4 fr)","ISRE reporter (A549-Dual [2]; 10 µM, irradiation: none)"
COc1c(OC2OC(CO)C(O)C(O)C2O)cc2c(c1OC)-c1ccc(SC)c(=O)cc1C(NC(C)=O)CC2 (stereo not given) [Thiocolchicoside],1.12,1.65,1.51,1.31,1.87,1.5,1.7,1.1,1.56,1.16,1.15,1.33,1.38,1.01,1.2,1.25,1.08,1.18,1.03,0.862
O=C1CCCC2C3CCC[N+]4([O-])CCCC(CN12)C34 (stereo not given) [Oxymatrine],0.607,0.682,0.747,0.776,1.08,0.725,0.665,0.876,0.768,0.722,0.7,0.682,0.75,0.571,0.731,0.703,0.527,0.913,0.779,0.653
COc1c(O)cc2c(c1O)C1OC(CO)C(O)C(O)C1OC2=O (stereo not given) [Bergenin],1.02,1.7,1.22,1.7,1.57,1.28,1.92,1.37,0.968,0.574,1.04,1.6,1.04,1.52,1.35,1.09,1.21,1.29,1.1,0.967
CCCCCCNC(=O)n1cc(F)c(=O)[nH]c1=O [Carmofur],1.1,1.01,1.36,1.04,1.16,1.07,1.3,0.827,0.976,0.953,0.986,0.932,1.58,1.07,1.12,0.879,1.2,0.736,0.762,1.49
CC(=O)Nc1ccc(CC(=O)O)cc1 [Actarit],1.21,2.38,1.62,2,1.59,1.44,2.35,1.41,1.58,1.24,1.11,1.97,1.33,1.55,1.55,1.24,1.27,1.25,1.44,0.992
